Among the data in PubChem BioAssay (NCI) are GI50 and TGI values, retold here.

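Dose response: 5 concentrations. Exposure: 48 h. Format: 96-well plates. Endpoint: linear interpolation; highest concentration if not reached. GI50 is the concentration that inhibits growth by half. TGI marks complete inhibition of growth.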

The test system of this assay is NCI-H322M lung. Nature of the assay: inhibition of tumour cell growth, NCI panel, 48 h.

For the compound `CCN1C(=O)N(CC)C2C1NN=C1SC(c3ccccc3)=CC(=O)N12` (stereo not drawn), the GI50 was 0.828 µM and the TGI is greater than 100 µM.

For `COC(=O)c1cccc(NC2=C(Cl)C(=O)c3nc(C)ccc3C2=O)c1`, the GI50 is 16 µM and the TGI stood at 30.3 µM.

As to `C#Cc1cc(OC)c(C(=O)Nc2ccc(F)cc2C(=O)Nc2cccc(S(=O)(=O)C(F)(F)F)c2)cn1`, the GI50 was 5.45 µM and the TGI was greater than 43.1 µM.

As to `Fc1ccc(-c2cc3nc(C(Cl)Cl)nc(-c4ccccc4)n3n2)cc1`, the GI50 was 1.15 µM and the TGI was 3.34 µM.
